The target in test [1] is T1, Recombinant FLAG-tagged DONSON, wild type (Xenopus laevis) (UniProt Q5U4U4).
T1 sequence: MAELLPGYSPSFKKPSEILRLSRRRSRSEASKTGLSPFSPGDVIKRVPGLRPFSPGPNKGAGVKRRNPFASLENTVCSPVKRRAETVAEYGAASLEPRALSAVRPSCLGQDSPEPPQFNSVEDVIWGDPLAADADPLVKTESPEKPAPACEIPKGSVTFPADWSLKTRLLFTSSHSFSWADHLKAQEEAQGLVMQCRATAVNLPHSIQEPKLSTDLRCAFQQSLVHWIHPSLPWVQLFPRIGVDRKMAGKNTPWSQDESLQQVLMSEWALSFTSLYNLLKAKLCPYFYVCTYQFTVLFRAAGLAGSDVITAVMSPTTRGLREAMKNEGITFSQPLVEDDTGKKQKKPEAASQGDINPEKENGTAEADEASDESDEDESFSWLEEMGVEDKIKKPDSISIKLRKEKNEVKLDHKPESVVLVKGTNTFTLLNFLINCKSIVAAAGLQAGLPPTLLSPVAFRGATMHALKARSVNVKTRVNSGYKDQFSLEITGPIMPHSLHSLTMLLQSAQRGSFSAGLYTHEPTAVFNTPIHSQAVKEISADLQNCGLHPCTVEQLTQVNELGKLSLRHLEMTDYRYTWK
In words: co-IP; purified FLAG-DONSON and GINS mixed in the absence of TOPBP1, each 0.5 μM in IP wash buffer, 15 min room temperature; anti-FLAG beads 30 min room temperature; immunoblot (fig. S11B, lanes 14 to 16; fig. S13C); both purified. Background: A western blot detects proteins with antibodies after separation by electrophoresis.

The target in test [2] is T2, Endogenous GINS of Xenopus nucleoplasmic egg extract (Xenopus laevis (endogenous in egg extract)) (UniProt Q7ZT47+Q7ZT46+Q7ZT01+Q7ZT48).
T2 sequence 1: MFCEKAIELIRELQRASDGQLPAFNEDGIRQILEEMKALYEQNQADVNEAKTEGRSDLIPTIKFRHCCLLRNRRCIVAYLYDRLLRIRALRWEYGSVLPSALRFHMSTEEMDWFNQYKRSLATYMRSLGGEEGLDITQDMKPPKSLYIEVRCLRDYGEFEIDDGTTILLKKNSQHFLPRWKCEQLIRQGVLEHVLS
T2 sequence 2: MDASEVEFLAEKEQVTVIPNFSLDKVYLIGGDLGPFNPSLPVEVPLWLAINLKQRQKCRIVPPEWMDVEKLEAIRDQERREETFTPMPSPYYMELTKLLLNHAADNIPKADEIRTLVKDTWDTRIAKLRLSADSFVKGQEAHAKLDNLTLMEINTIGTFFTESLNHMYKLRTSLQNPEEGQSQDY
T2 sequence 3: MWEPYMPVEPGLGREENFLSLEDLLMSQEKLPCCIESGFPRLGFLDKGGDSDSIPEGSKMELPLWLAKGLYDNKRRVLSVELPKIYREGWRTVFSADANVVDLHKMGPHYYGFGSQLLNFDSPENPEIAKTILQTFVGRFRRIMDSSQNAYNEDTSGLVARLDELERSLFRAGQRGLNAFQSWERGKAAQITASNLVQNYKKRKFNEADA
T2 sequence 4: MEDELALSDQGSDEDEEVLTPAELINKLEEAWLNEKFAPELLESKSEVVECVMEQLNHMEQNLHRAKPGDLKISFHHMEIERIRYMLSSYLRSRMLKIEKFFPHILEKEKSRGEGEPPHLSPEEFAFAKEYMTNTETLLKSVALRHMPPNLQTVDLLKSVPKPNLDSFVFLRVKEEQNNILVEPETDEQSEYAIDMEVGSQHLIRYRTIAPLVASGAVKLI
Kind of test: co-IP; endogenous GINS precipitated from 30% NPE with anti-PSF3 antibody cross-linked to Dynabeads Protein A, 1 h 4°C, immunoblot.

Test [3] addresses T3, FLAG-DONSON DEWE→RRAR, expressed in wheat germ extract (Xenopus laevis) (UniProt Q5U4U4).
T3 sequence: T1 sequence with D374R, E377R, W381A, E384R
In words: co-IP; FLAG-DONSON proteins expressed in wheat germ extract pre-immobilised on anti-FLAG M2 magnetic beads, incubated with 30% NPE 1 h 4°C, eluted with 3× FLAG peptide, immunoblot (Fig. 4D, figs. S12 and S14).

Changes are numbered by the printed parent chain. Names and notes keep the numbering of the source. Results are given in words; binding and its absence hold for the method and conditions named. For part of these data: In cells and extracts the contact can be indirect. Some binding calls cover weakened binding; strength is not graded here. For part of these data: Where a sequence is shown, tags or fusion partners need not be part of it.

The record followed here is PMC10801813, “In silico protein interaction screening uncovers DONSON’s role in replication initiation” (Science (New York, N.Y.), 2023).

B1: Recombinant Xenopus laevis GINS with SLD5 H76A, bacterial expression (complex, UniProt Q7ZT47 1-196; Q7ZT46 1-185; Q7ZT01 1-210; Q7ZT48 1-221)
chain 1: T2 sequence 1
chain 2: T2 sequence 2
chain 3: T2 sequence 3
chain 4: T2 sequence 4 with H76A
As to B1, in test [1], the binding entry is “binds weakly”.

B2: Recombinant FLAG-tagged DONSON, wild type (natural protein, Xenopus laevis, UniProt Q5U4U4 1-579, looked up)
chain: T1 sequence
notes: Xenopus DONSON (Downstream Neighbor of SON); also called rFLAG-DONSON; FLAG-DONSON; source: E. coli Rosetta (DE3) pLysS, purified (Glutathione Sepharose, PreScission cleavage, Superdex 200); not shown: GST, N-terminal, cleaved
With B2, in test [2], the binding result is recorded as “binds”.

B3: Endogenous MCM3 of Xenopus nucleoplasmic egg extract (protein, UniProt P49739 1-807)
chain: MDYGGGFEDHELREAQREYLDFLDDDQDQGLYHGKVRDMIGSNEHRLIVNLNDVRRKNDKRANLMLNDAFAETIAFQRALKDLVASIDATYAKQFEEFSVGFEGSFGSKHVSPRTLTASLLGSLVCVEGIVTKCSLVRPKVMRSVHYCPATKKTLERKYSDLTSLEAFPSSSIYPTKDEENNPLETEYGLSTYKDHQTLSIQEMPEKAPAGQLPRSVDIIADDDLVDKCKPGDRVQIVGIYRCLPSKQGGFTSGTFRTILLANNIKLMSKEIAPTFSADDVAKIKKFCKAHSKDIFEHLSKSLAPSIHGHEYIKKAILCMLLGGNEKVLENGTRIRGDINVLLIGDPSVAKSQLLRYVLHTAPRAIPTTGRGSSGVGLTAAVTTDQETGERRLEAGAMVLADRGVVCIDEFDKMSDMDRTAIHEVMEQGRVTIAKAGIQARLNARCSVLAAANPVYGRYDQYRTPMENIGLQDSLLSRFDLLFIVLDKMDADNDQEIADHVLRMHRYRTPGEQDGYALPLGCSVEIFATDDPNASDVTDQELQIYEKHDNLLHGPRKNKSKIVSMQFIRKYIHVAKLIKPVLTSEAADYISQEYAKIRNHDQINNDSARTMPVTARALETMIRLSTAHAKVRMSKTIERQDAETALELVQFAYFKKVLAKEKKKTDKDLHDENLSQDTLSQESVRKSSRRAGKIADSQDDSMDPYSFSEQDSSLNENLSQSLRPQRKKAESQDGKRSLSQNRTKEFKAALLKAFKSSRSQSVAVSQLLELINKGNPEPFERSEVKEALDNMQNDNQVMVSEDVVFLI
For the molecule B3, the binding entry in test [3] is “no binding”.
